Assay results reported in publication PMC4336329 (PLoS ONE, 2015).
Screen size: about 310,000 compounds; about 14,000 (4.5%) showed an effect of 50% or more. The effect is printed as a negative number. This is one part of the list.
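Further: peak tail current of the secondary pulse compared with the same well before compound.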

The compounds below were run against human ether-à-go-go-related gene (hERG) potassium channel (human, UniProt Q12809) (assay: primary screen, population patch clamp on CHO cells stably expressing hERG).
Chain of human ether-à-go-go-related gene (hERG) potassium channel (Q12809 whole entry, looked up): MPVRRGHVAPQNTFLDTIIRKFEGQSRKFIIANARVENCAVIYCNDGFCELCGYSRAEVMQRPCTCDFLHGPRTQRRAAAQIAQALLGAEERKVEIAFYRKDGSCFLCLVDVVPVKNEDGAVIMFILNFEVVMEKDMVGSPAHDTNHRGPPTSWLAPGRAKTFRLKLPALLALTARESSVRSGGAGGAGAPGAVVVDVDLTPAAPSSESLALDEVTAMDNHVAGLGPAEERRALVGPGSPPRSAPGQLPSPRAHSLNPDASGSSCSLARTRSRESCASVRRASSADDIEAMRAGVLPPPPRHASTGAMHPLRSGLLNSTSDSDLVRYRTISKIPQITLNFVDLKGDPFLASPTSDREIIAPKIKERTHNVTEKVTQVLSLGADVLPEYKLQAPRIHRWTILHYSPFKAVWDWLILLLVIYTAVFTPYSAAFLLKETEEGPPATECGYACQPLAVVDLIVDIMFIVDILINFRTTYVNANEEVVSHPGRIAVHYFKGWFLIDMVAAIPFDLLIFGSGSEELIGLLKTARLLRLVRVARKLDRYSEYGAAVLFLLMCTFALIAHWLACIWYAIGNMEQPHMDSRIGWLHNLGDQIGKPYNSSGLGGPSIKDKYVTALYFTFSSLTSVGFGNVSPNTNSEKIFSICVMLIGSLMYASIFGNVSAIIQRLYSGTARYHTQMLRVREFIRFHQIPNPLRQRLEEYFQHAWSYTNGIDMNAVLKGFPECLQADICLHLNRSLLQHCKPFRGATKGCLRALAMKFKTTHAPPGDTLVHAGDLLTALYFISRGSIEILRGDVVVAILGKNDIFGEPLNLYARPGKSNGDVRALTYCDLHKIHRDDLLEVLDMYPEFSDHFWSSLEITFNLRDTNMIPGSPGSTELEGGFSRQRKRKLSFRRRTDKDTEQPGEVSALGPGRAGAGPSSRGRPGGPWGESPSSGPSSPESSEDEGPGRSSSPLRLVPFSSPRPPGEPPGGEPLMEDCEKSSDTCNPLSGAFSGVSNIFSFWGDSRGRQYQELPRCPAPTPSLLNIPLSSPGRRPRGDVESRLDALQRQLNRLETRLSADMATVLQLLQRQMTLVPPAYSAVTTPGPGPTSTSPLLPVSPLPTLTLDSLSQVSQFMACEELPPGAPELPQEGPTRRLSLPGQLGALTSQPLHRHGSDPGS
With `CC(=O)n1c2ccccc2c2c1c1ccccc1n2C` the “hERG current change (%, negative = inhibition) at 10uM” value was -1.59%.
With `COc1cccc(CN2CC(C(=O)N3CCCO3)CCC2=O)c1` (stereo not drawn) the “hERG current change (%, negative = inhibition) at 10uM” value was 3.91%.
In the case of `CCOC(=O)CCCNC(=O)CCNC(=O)c1ccc(OC(C)C)cc1`, the “hERG current change (%, negative = inhibition) at 10uM” value is reported as 7.79%.
For `Cc1cc(C)c(NC(=O)CN(C)C(=O)c2ccc(OCc3ccccc3)cc2)c(C)c1`, the “hERG current change (%, negative = inhibition) at 10uM” value was 14.1%.
With `O=Nc1c(O)n(Cc2cccc(Cl)c2)c2ccccc12` the “hERG current change (%, negative = inhibition) at 10uM” value was 2.31%.
For `COc1ccc(CN(C(=O)c2snc(C(N)=O)c2N)C(C(=O)NC2CCCC2)c2ccc(OC)c(OC)c2)cc1` (stereo not drawn), the “hERG current change (%, negative = inhibition) at 10uM” value was -4.19%.
In the case of `Cc1cccc(NC(=O)c2ccc3c(c2)C(=O)N(c2ccccc2C)C3=O)n1`, the “hERG current change (%, negative = inhibition) at 10uM” value is reported as -10.5%.
For `COc1ccc(CCC(=O)Nc2nc3ccccc3[nH]2)cc1OC`, the “hERG current change (%, negative = inhibition) at 10uM” value was -55.7%.
`Cc1ccc2oc(C(Cl)(Cl)Cl)cc(=O)c2c1` was tested, and the “hERG current change (%, negative = inhibition) at 10uM” value was 9.24%.
With `CCCc1cc(=O)oc2cc(OC(=O)CN3C(=O)NC4(CCCC4)C3=O)ccc12` the “hERG current change (%, negative = inhibition) at 10uM” value was -11.6%.
`S=C(Nc1ccc(Oc2ccccc2)cc1)N1CCN(c2ccccn2)CC1` was tested, and the “hERG current change (%, negative = inhibition) at 10uM” value was 9.79%.
For `COc1ccccc1C(=O)C(O)c1ccccc1OC` (stereo not drawn), the “hERG current change (%, negative = inhibition) at 10uM” value was -1.94%.
With `CCOc1cc(-c2nc(-c3ccncc3)no2)cc(OCC)c1OCC` the “hERG current change (%, negative = inhibition) at 10uM” value was 4.14%.
For `CCCCNC(=O)C1CCN(C/C(C)=C/c2ccccc2)CC1.O=C(O)C(=O)O`, the “hERG current change (%, negative = inhibition) at 10uM” value was -63%.
With `CCN1C(=O)C(CC(=O)Nc2c(C)cccc2C)Nc2cc(S(=O)(=O)N(C)C)ccc21` (stereo not drawn) the “hERG current change (%, negative = inhibition) at 10uM” value was -10.9%.
`Br.COc1cccc(C(=O)Cn2c(NCCO)nc3ccccc32)c1` was tested, and the “hERG current change (%, negative = inhibition) at 10uM” value was 1.97%.
`CC1(C)CC(=O)/C(=C(/O)Cc2ccccc2)C(=NCCc2ccccc2)C1` was tested, and the “hERG current change (%, negative = inhibition) at 10uM” value was -45.2%.
For `Cc1ccccc1-n1c(-c2ccoc2)nc2ccccc2c1=O`, the “hERG current change (%, negative = inhibition) at 10uM” value was 6.09%.
In the case of `Cc1ccc(-c2nnc(SCC(=O)Nc3ccc4c(c3)oc3ccccc34)n2C)c(Cl)c1`, the “hERG current change (%, negative = inhibition) at 10uM” value is reported as 1.43%.
With `O=C(/C=C/c1cccc(Cl)c1)Nc1ccncc1` the “hERG current change (%, negative = inhibition) at 10uM” value was -17.1%.
`O=[N+]([O-])c1ccc(O)c(Nc2ncnc3ccccc23)c1` was tested, and the “hERG current change (%, negative = inhibition) at 10uM” value was 13.1%.
For `NS(=O)(=O)c1ccc(NC(=O)c2cc(Cl)sc2Cl)cc1`, the “hERG current change (%, negative = inhibition) at 10uM” value was -9.92%.
For `Clc1cccc(Cl)c1CSc1nnc(-c2sccc2-n2cccc2)o1`, the “hERG current change (%, negative = inhibition) at 10uM” value was 10.9%.
With `CCc1nnc(NC(=O)CSc2nc(C)nc3c2c(=O)n(C)c(=O)n3C)s1` the “hERG current change (%, negative = inhibition) at 10uM” value was 13%.
